39 variants from the RNAGym collection of RNA variant scans (doi:10.7554/elife.90254) can be followed below.

Sequences and labels used below:
B1: LINE1-full (parent)
chain: UACGUAGGUGGUUUUCCCCUGAUAGUGCUAAGGGGGCCUGGAAGUUUGGACUGGGCAGAGCUCAACACAGCGUGGCAAAGUGGCUGUGGCUAGACUGCCUCUCUGGAUUCCUCGUCACUCAGCAGGGCAUCUCUGAGAGAAAUGCC

The source gives no read counts; variants with many changes may rest on few reads.

Variants of B1 are the subject of the data set. The experiment in a line: self-cleavage, relative activity (ratio to wild type); higher = more cleavage; in vitro, sequencing; the parent is a self-cleaving ribozyme.
Regarding UACGUAGGUGGUUUUCCCCUGAUAGUGCUAAGGGGGCCCGGAAGUUUGGACUGGGCAGAGCUCAACACAGCGUGGCAAAGUGGCUGUGGCUAGACUGCCUCUCUGGAUUCCUCGCCACUCAGCAGGGCAUCUCAGAGAGAAAUGCC, the self-cleavage came to 0.53.

Consider UACGUAGGUGGUUUUCCCCUGAUAGUGCUAAGGGGGCCCGGAAGUUUGGACUGGGCAGAGCUCAACACAGCGUGGCAAAGUGGCUGUGGCUAGACUGCCACUCUGGAUCCCUCGUCACUCAGCAGGGCAUCUCCGAGAGAAAUGCC, for which the self-cleavage came to 0.63.

With UACGUAGGUGGUUUUCCCCUGAUAGUGCUAAGGGGGCCCGGAAGUUUGGACUGGGCAGAGCUCAACACAGCGUGGCAAAGUGGCUGUGGCAAGACUGCCUCUCUGGAUUCCUUGCCACUCAGCAGGACAUCUCUGAGGGAAAUGCC, the self-cleavage worked out at 0.44.

In the case of UACGUAGGUGGUUUUCCCCUGAUAGUGCUAAGGGGGCCUAGAAGUUUGGACUGGGCGGAGCUCAACACAGCGUGGCAAGGUGGCUGUGGCUAGACUGCCUCUCUGGAAUCCUCGUCACUCAGCAGGGCAUCUCUGAGAGAAAUGCC, the self-cleavage is 0.62.

Regarding UACGUAGGUGGUUUUCCCCUGAUAGUGCUAAGGGGGCCUAGAAGUUUGGACUGGGCAGAGCUCAGCACAGCGUGGCAAAGCGGCUGUGGCUAGACUGCCUCUCUGGAUUCCUCGUCACUCAGCAGGGCAUCUCUGAGAGAAAUGCC, the self-cleavage worked out at 0.02.

On to UACGUAGGUGGUUUUCCCCUGAUAGUGCUAAGGGGGCCGGGAAGUUUGGACUGUGCAGAGCUCAACACAGCGUGGCAAAGUGGCUGUGGCUAGACUGCCUCUCUGGAUUCCUCGUCACUCAGCAGGGCAUCCCUGAGGGAAAUGCC, for which the self-cleavage was 1.27.

Take UACGUAGGUGGUUUUCCCCUGAUAGUGCUAAGGGGGCCCGGAAGUUUGGACUGGGCAGAGCUCAACACAGCGAGGCAAAGUGGCUGUGGCUAGACUGCCUCUCUGGAUUCCUCGCCACUCAGCAGGGCAUCUCUGAGAGAAUCGCC: the self-cleavage worked out at 0.33.

UACGUAGGUGGUUUUCCCCUGAUAGUGCUAAGGGGGCCCGGAAGUUUGGACUGGGCAGAGCCCAACACAGCGUGGCAAAGUGGCUGUGGCUAGACUGCCUCUCUGGAUUCCUCGUCACUCAGCAGGGCAUCUCUGGGAGAAAUGCC: the self-cleavage amounted to 0.04.

Turning to UACGUAGGUGGUUUUCCCCUGAUAGUGCUAAGGGGGCCGGGAAGUUUGGACUGGGCAGAGCUCAACACAGCGUGGCAAAGUGGCUGUGGCUAGACUGCCUCUCUGGAUUCCUCGUCAAUCAGCGGGGCAUCUCUGAGAGAAAUGCC, the self-cleavage stood at 1.09.

UACGUAGGUGGUUUUCCCCUGAUAGUGCUAAGGGGGCCCGGAAGUUUGGACUGGGCAGAGCUCAACACAGCGUGGCAAAGGGGCUGAGGCGAGACUGCCUCUCUGGAUUCCUCGUCACUCAGCAGGGCAUCUCUGAGAGAAAUGCC: the self-cleavage was found to be 0.09.

As for UACGUAGGUGGUUUUCCCCUGAUAGUGCUAAGGGGGCCCGGAAGUUUGGACUGGGCAGAGCUCAACACAGCGUGGCAAAGUGGCCGUGGCUAGGCUGCCUCUCUGGAUUCCUCGUCACUCAGCAGGGCAUCUCUGAGAGAAAUGCC, the self-cleavage was determined as 0.

In the case of UACGUAGGUGGUUUUCCCCUGAUAGUGCUAAGGGGGCCCGGAAGUUUGGACUGGGCAGAGCUCAACACAGCGUGGCAAAGAGGCUGUGGCUAGACUGCCUCUCUGGAUUCCUCGUCACUCAGCAGGGCAUCUCUGUGAGAAAUGCC, the self-cleavage came out at 0.52.

For the variant UACGUAGGUGGUUUUCCCCUGAUAGUGCUAAGGGGGCCCGGAAGUUUGGACUGGGCAGAGCUCAACACAGCGUGGCAAAGUGGCUGUGGCUAGACUGCCUCUCUGGAUUCCUCGACACUCAGCGGGGCAUCUCAGAGAGAAAUGCC, the self-cleavage is 0.26.

Take UACGUAGGUGGUUUUCCCCUGAUAGUGCUAAGGGGGCCUAGAAGUUUGGACUGGGCAGGGCUCAACACAGCGUGGCAAAGUGACUGUGGCUAGACUGCCCCUCUGGACUCCUCGUCACUCAGCAGGGCAUCUCUGAGAGAAAUGCC: the self-cleavage came out at 0.05.

Regarding UACGUAGGUGGUUUUCCCCUGAUAGUGCUAAGGGGGCCUAGAAGUUUGGGCUGGGCAGAGCUCAACACAGCGUGGCAAAGUAGCUGUGGCUAGACUGCCUCUCUGGAUUCCUCGUCACUCAGCAGGGCAUCUCUGAGAGAAAUGCC, the self-cleavage amounted to 1.01.

On to UACGUAGGUGGUUUUCCCCUGAUAGUGCUAAGGGGGCCCGGAAGUUUGGACUGGGCAGAGCUCAACACAGCGUGGCAAAGUGGCUGUGGCUAGACUGCCCCUCUGGAUUCCUCGUCACUCAGCAGGACAACUCUGAGAGAAAUGCC, for which the self-cleavage amounted to 2.25.

With UACGUAGGUGGUUUUCCCCUGAUAGUGCUAAGGGGGCCCGGAAGUUUGGACUGGGCAGAGCUCAACACAGCGUGGCAAAGUGGCUGUGGCUAGACUGCCUCUCUGGAUUCCACGUCACUCAGCAGGGCAUCUCUGAGGGAAAUGCC, the self-cleavage is 0.76.

Turning to UACGUAGGUGGUUUUCCCCUGAUAGUGCUAAGGGGGCCCGGAAGUUUGGACUGGGCAGAGCUCAACACAGCGUGGCAAAGUGGCUGUGGCUAGACUGCCUCUCUGGACUCCUCGUCACUCAGCAGGGCAUCUCCGAGAGAAAUGCC, the self-cleavage amounted to 0.99.

With UACGUAGGUGGUUUUCCCCUGAUAGUGCUAAGGGGGCCUAGAGGUUUGGACUGGGCAGAGCUUAACACAGCGUGGCAAAGUGGCUGUGGCUAGACUGCCUCUCUGGAUUCCUCGUCGCUCAGCAGGGCAUCUCUGAGAGAAAUGCC, the self-cleavage amounted to 0.31.

Regarding UACGUAGGUGGUUUUCCCCUGAUAGUGCUAAGGGGGCCGGGAAGUUUGGACUGGGCAGAGCUCAACACAGCGUGGCAAAGUGGCUGUGGCUAGACUGCCUCUCUAGAUCUCUCGUCACUCAGCAGGGCGUCUCUGAGAGAAAUGGC, the self-cleavage was determined as 2.06.

In the case of UACGUAGGUGGUUUUCCCCUGAUAGUGCUAAGGGGGCCUAGAAGUUUGGACUGGGCUGAGCUCAACACAGCGUGGCAAAGUAGCUGUGGCUAGACUGCCUCUCUGGAUUCCUCGUCACUCAGCAGGGCAUCUCUGAGAGAAAUGCC, the self-cleavage stood at 0.11.

UACGUAGGUGGUUUUCCCCUGAUAGUGCUAAGGGGGCCGGGAAGUUUGGACUGGGCAGAGCUCAGCACAGCGUGGCAAAGUGGCUGUGGAUAGACUGCCUCUCUGGAUUCCUCGUCACUCAGCAGGGCAUCUCUGAGAGAAAUGCC: the self-cleavage stood at 0.05.

As to UACGUAGGUGGUUUUCCCCUGAUAGUGCUAAGGGGGCCCGGAAGUUUGGACUGGGCAGAGCUCAACACAGCGUGGCAAAGUGGCCGUGGCUCGACUGCCUCUCUGGAUUCCUCGUCAAUCAGCAGGGCAUCUCUGAGAGAAAUGCC, the self-cleavage turned out to be 0.21.

Turning to UACGUAGGUGGUUUUCCCCUGAUAGUGCUAAGGGGGCCGGGAAGUUUGGACUGGGCAGAGCUCAACACAGCGUGGCAAAGUGGCUGUGGCUAGACUGCCUCUCUUGAUUCCUCGUCACUCAGCAGGGCAUCACUGAGAGAAAUGCC, the self-cleavage came to 1.18.

As to UACGUAGGUGGUUUUCCCCUGAUAGUGCUAAGGGGGCCCGGAAGUUUGGACUGGGCAGAGCCCAACACAGCGUGGCAAAGUGGCUGUGGCUGGACUGCCUCUCUGGAUUCCUCGUCACUCAGCAGGGCAUCUCUGAGAGGAAUACC, the self-cleavage came out at 0.

With UACGUAGGUGGUUUUCCCCUGAUAGUGCUAAGGGGGCCUAGAAGUUUGGACUGGGCUGAGCUCAACACAGCGUGGCAAAGUGGCUGUGGCUAGACUGCCUCUCUGGAUUCCUCGUCACUCUGCAGGACAUCUCUGAGAGAAAUGCC, the self-cleavage is 0.03.

On to UACGUAGGUGGUUUUCCCCUGAUAGUGCUAAGGGGGCCCGGAAGUUUGGACUGGGCAGAGCUCAACACAGCGUGGCAAAGUGGCUGUGGCUAGACUGCCUCUCUGGAUUCCUCGCCACUCAGCUGGGCAUCUCUGAGAGAGAUGCC, for which the self-cleavage is 2.78.

As to UACGUAGGUGGUUUUCCCCUGAUAGUGCUAAGGGGGCCUAGAAGUUUGGACUGGGCAGAGCUCAACACAGCGUGGCAAAGUGGCUGUGGCUAGGCUGCCUCCCUGGAUUCCUCGUCACUCAGCAGGGCAUCUCUGAGAGAAAUGCC, the self-cleavage came out at 0.

For UACGUAGGUGGUUUUCCCCUGAUAGUGCUAAGGGGGCCCGGAAGUUUGGACUGGGCAGAGCUCAACACAGCGUGGCAAAGUGGCUGUGGCUAGACUGCCUCACUGAAUUCCUCGUCACUCAGCUGGGCAUCUCUGAGAGAAAUGCC, the self-cleavage amounted to 1.65.

As to UACGUAGGUGGUUUUCCCCUGAUAGUGCUAAGGGGGCCCGGAAGUUUGGACUGGGCAGAGCUCAACACAGCGUGGCAAAGUGGCUGUGGCUAGACCGCCUCUCUGGAUUCCUCGUCACCCAGCUGGGCAUCUCUGAGAGAAAUGCC, the self-cleavage worked out at 0.

As to UACGUAGGUGGUUUUCCCCUGAUAGUGCUAAGGGGGCCGGGAAGUUUGGACUGGGCAGAGCUCGACACAGCGUGGCAAAGUGGCUGUGGCUAGACUGCCUCUCUGGAUUCCUCGUCACUCAGCAGGGCAUCUCUGAGAGAAACGCC, the self-cleavage worked out at 0.49.

Consider UACGUAGGUGGUUUUCCCCUGAUAGUGCUAAGGGGGCCCGGAAGUUUGGACUGGGCAGAGCUCAACACAGCGUGGCAAAGUGGCUGUGGCUAGACCGCCUCUCUGGAUUCCUCGUCACUCUGCAGGGCAUCUCUGAGAGAAAUGCC, for which the self-cleavage amounted to 0.

As for UACGUAGGUGGUUUUCCCCUGAUAGUGCUAAGGGGGCCCGGAAGUUUGGACUGGGCAGAGCUCAACACAGCGUGGCAAAGUGGCUGUGGCUAGACUGCCUCUCAGGAUUCCUCGUCACUCAGCAGGGCAUCUCUGAGAGAAAGGCC, the self-cleavage turned out to be 0.4.

Turning to UACGUAGGUGGUUUUCCCCUGAUAGUGCUAAGGGGGCCCGGAAGUUUGGACUGGGCAGAGCCCAACACAGCGUGGCAAAGUGGCUGUGGCUAGACUGCCUCUCUGGAUUCCUCGUCACUCAGCAGGGCAUCUCUGAGUGAAAUGCC, the self-cleavage worked out at 0.06.

Regarding UACGUAGGUGGUUUUCCCCUGAUAGUGCUAAGGGGGCCCGGAAGUUUGGACUGGGCAGAGCUCAACACAGCGUGGCAAAGUGGCUGUGGCUAGACUGCCUCUCUGGAUACCUCGUCUCUCAGCAGGGCAUCUCUGAGAGAAAUGCC, the self-cleavage was 1.49.

For the variant UACGUAGGUGGUUUUCCCCUGAUAGUGCUAAGGGGGCCCGGAAGUUUGGACUGGGCAGAGCUCAACACAGCGUGGCAAAGAGGCUGUGGCUAGACUGCCUCUCUGGAUUCCUCGUCACUCAGUAGGGUAUCUCUGAGAGAAAUGCC, the self-cleavage amounted to 1.83.

As for UACGUAGGUGGUUUUCCCCUGAUAGUGCUAAGGGGGCCCGGAAGUUUGGACUGGGCAGAGCUCAACACAGCGUGGCAAAGUGGCUGUGGCUAGACUGCCCCUCUGGAUUCCCCGUCACUCAGCAGGGCAUCUCUGAGAGAAAUGCC, the self-cleavage amounted to 1.67.

Regarding UACGUAGGUGGUUUUCCCCUGAUAGUGCUAAGGGGGCCGGGAAGUUUGGACUGGGCAGAGCUUAACACAGCGUGGCAAAGUGGCUGUGGCUAGACUGCCUCUCUGGACUCCUCGUCACUCAGCAGGGCAUCUCUGAGAGAAAUGCC, the self-cleavage was 0.2.

Regarding UACGUAGGUGGUUUUCCCCUGAUAGUGCUAAGGGGGCCUAGAAGUUUGGACUGGGCAGAGCUCUACACAGCGUGGCAAAGUGGCUGUGGCUAGACUGCCUCUCUGGGUUCCUCGUCACUCAGCAGGGCAUCUCUGAGAGAAAUGCC, the self-cleavage amounted to 0.22.
